Results taken from patent US7476680B2, “Substituted heterocyclic compounds for treating multidrug resistance” (H. Lee Moffitt Cancer Center & Research Institute, Inc., priority 2000, dated 2009).
At least one read-out could not be matched to a standard name with certainty.

System: NIH-MDR1-G185 cells
Assay: Fluorescent substrate accumulation assay (BODIPY-FL Taxol)
Assay type: cell-based
Conditions: BODIPY-FL Taxol 500 nM, modulator 10 micromolar, 40 min at 37° C.; fluorescence with modulator / without modulator
Procedure: Fluorescent Substrate Accumulation Assay
NIH-MDR1-G185 cells (obtained from M. Gottesman, NIH) were harvested and resuspended in RPMI-1640 containing L-glutamine, 10% Cosmic Calf Serum and penicillin-streptomycin. Cell suspension aliquots of 175 microliters (1×10^5 cells) were added to individual wells of a 96 well microtiter plate and preincubated for 15 min at 37° C. with 20 microliters MDR modulator diluted in cell culture media to give a final concentration of 10 micromolar. Control wells received no modulating agent. BODIPY-FL Taxol (Molecular Probes, Eugene, Oreg.) was added to each well in 10 microliter aliquots to give a final concentration of 500 nM and cells were incubated for 40 min at 37° C. Cells were centrifuged at 100×g for 5 min at 4° C. and the cell pellet washed with 200 microliters cold PBS to remove fluorescent medium from wells. Cells were centrifuged once more, media removed, and cells resuspended in 200 microliters cold PBS. Fluorescence accumulation was measured in a fluorescence plate reader fitted with an excitation filter of 485 nm and an emission filter of 538 nm. BODIPY-FL taxol accumulation in the cells was calculated as follows: Accumulation Index=(fluorescence in NIH-MDR1-G185 cells in the presence of modulator)/(fluorescence in NIH-MDR1-G185 cells in absence of modulator)

COc1cc(OCC(O)CN2CCC(C(=O)NC(CCCc3ccccc3)CCCc3ccccc3)CC2)cc(OC)c1OC (stereo not shown) [Example 6, 1-[2-hydroxy-3-(3,4,5-trimethoxyphenyl)-propyl]-piperidine-4-carboxylic acid [4-phenyl-1-(3-phenyl-propyl)-butyl]-amide] was tested, and the “Accumulation Index” value was 6.
